# Assay results: the supplement of paper PMC11417369
# The other results are listed elsewhere or left out.
# Tested on: PfAP2-HC AP2 domain (GST-tagged)
# Test: gcPBM binding intensity (ln(normalized median fluorescence intensity)); higher = stronger DNA binding
# How it was run: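 The binding buffer was 1× PBS containing 1% milk, 0.2 mg/ml BSA, 0.5% salmon testes DNA and 0.03% Triton X-100. In it, GST-tagged P. falciparum DNA-binding domains expressed in E. coli were applied for 1 h to an Agilent 4 × 180k array of primer-extended double-stranded 36-bp intergenic genomic probes plus negative controls. Binding intensity, read with Alexa488 anti-GST antibody and a 488 nm scan, is the highest Masliner-normalised natural-log median intensity across replicate spots of either probe orientation.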
row,Sequence,gcPBM binding intensity (ln)
1,AAAAATATAATATAATGTACACAAAAAAAAAAATTC [XGTACX_site3657],9.78
2,AATTAGACATAATATACACACATATATTATAGATAT [CACACA_site7297],9.86
3,TATATTATTATAATTTGTACATATCTAATTATATAT [XGTACX_site5342],9.74
4,TAAAGATATTATTTTTGTACATATTGATATAATGAA [XGTACX_site6571],9.4
5,ACGTTTTATAATTAATGTACAAATATTAAAATTGCA [XGTACX_site7869],9.48
6,GAATAAATTAAAAATGCACACTTTGATGGGTACATT [CACACA_site5220],9.7
7,TATATTTGCAGTAATAATAATTATTATAAAAGATAA [XGTACX_negctrl_site547],9.57
8,TTATTTATTTTAAATTCACACATCGTGCTATTATAT [CACACA_site5003],10.1
9,TCATATATTTATGTATGTACATATATATATAGATTA [XGTACX_site380],9.44
10,TATGAATGGTTAAGTACACACATATTAAGATATGTA [CACACA_site5852],9.72
11,ATATAAACATATAATAGTACACTTCGATAATTTTAT [XGTACX_site3321],9.71
12,ATTTAACATATAAAATGTACATATATATATATATTT [XGTACX_site2525],9.7
13,GTACCATCAAAATAAATATATATATATATATATTTT [GTGCAC_negctrl_site646],9.66
14,AAAATAAAAAAAATAAATAAAAAAAATAATAATAAA [CACACA_negctrl_site563],9.69
15,TCATAAATATAAAGTGTGCACTTGAATAATATGTAT,9.72
16,TAAATAAATCTGTGCTTGCACTTTTTTTGTTATTTT,9.66
17,ACATGTAATATAATGTGTACATATACAAAGGTATAT [XGTACX_site4145],10.2
18,AGATGAGAAATATATACACACAATAATACCTATTTA [CACACA_site876],10.2
19,ATAAAGTATATTATATGTACATATATATATTATATA [XGTACX_site1345],9.64
20,TTTGTGTTGTATTTTTGTACATAAAATAAACTTAAA [XGTACX_site4637],9.37

row,Sequence,gcPBM binding intensity (ln)
1,TTTCTTTTTTCTTCAGTGCATTAAAATTAACAAAAG,9.34
2,GAGCCCAAAAAATTAGGTACGTATAAAGAGGTATTT [XGTACX_site5348],9.5
3,CATATATATATTGGAAGTACATATTTAATATTCATT [XGTACX_site3545],9.56
4,AGGAAAATTTTATTTGCACACATTATTACGTCTAAA [CACACA_site2337],9.82
5,TCTTTTTTCATATTTTCACACATGTCTTTATATTTA [CACACA_site6025],10
6,ATTCCTTTATTATCACGTACTTATAAAATATAGTAT [XGTACX_site7498],9.85
7,ATAAACAGATAAAAGGGTACACACATATATACATGT [XGTACX_site452],10.3
8,TTATATATATATTGTTCACACATAATATAAATATTT [CACACA_site5835],9.47
9,TTAAATAAAATAAAAACATGCACACTTTATTTTTTT [TGCATGCA_site719],9.74
10,TTTTAATAAATCATTTTCCTAATATTTATATTTGCT [TGCATGCA_negctrl_site232],9.52
11,TTTTTCATTTAGCTTTTACACACTATATATTATTGA [CACACA_site7888],9.9
12,TATATTTTTATGTGTGTGCACAAAATAACAAAATAT [GTGCAC_site9596],10
13,ATTATTTTTTTTGAAGTGCAATATTATTTTTAATCA,9.5
14,GTTAAGTGGATATATACACACATATGCAATACATGA [CACACA_site7427],9.88
15,ATGGTTATATTTGAAGTGCAAAAAAAAATATATGTA,9.59
16,TATACTACCCAGAGCTGTACAAAATAATAATAAGTT [XGTACX_site1045],9.81
17,ATGTGGATTTTATAATGTACATATGATATTATTTTG [XGTACX_site7930],9.76
18,CAATTCAATATATATACACACACACTATTAATAATT [CACACA_site9256],10.3
19,TACTTTTTTATTTGGTGTACAAATAAAATCATAATG [XGTACX_site1802],9.62
20,GAAGATATATAATAATTCATAGTTTTTTAATTTAAA [TGCATGCA_negctrl_site295],9.54

row,Sequence,gcPBM binding intensity (ln)
1,ATATATTTTGATTGCACACAGAATTTAAATCATGAT [CACACA_site2343],9.78
2,CTCTTTTCTTATAATACACACAGTAATATTTATATA [CACACA_site6824],9.77
3,AATAAAAAAAATTTCTGTACATATATTTATTATATA [XGTACX_site1883],9.44
4,AAAAAAAAAAAAATTGCATGTAAATGAAATAATAAA [TGCATGCA_site116],9.68
5,AAAGAAGAAAAATATAGTACAGGGCACATGTCCTGT [XGTACX_site6293],9.6
6,ATTTAAATTTAAAAAACACACATAATATGATATATA [CACACA_site1973],9.69
7,TTATTTTTATATTTCACACACATATACTTTTACATA [CACACA_site4097],10.2
8,TATTGTAGTCATGCACGTACAAAAGGAAAGTTAAAA [XGTACX_site4446],9.59
9,ATAAATTAATGGAGAAATCTTATGAATTTATTTTAA [CACACA_negctrl_site1068],9.47
10,AAATAAAATATTACATGTACATGTTCATAAAAAAAA [XGTACX_site1067],9.61
11,TACATACACAGACACACACACATATATATATATATA [CACACA_site3557],10.9
12,AATAAAAAGGAACACACACACACACCGATATATATA [CACACA_site5895],11.2
13,AATATATACATATATACACACACATATATTATATAT [CACACA_site7980],10.1
14,TAAATATAAGTGTACATACACACTTTACAATCTCAT [CACACA_site3006],9.73
15,TTATACGATAATATGACACACAATACAAAAATGTAA [CACACA_site1918],9.86
16,CCTATAAAACCATATACACACATATATATAAAAAAA [CACACA_site4013],9.83
17,TGTTTCTAAAAATTTACACACAAAATATTTCTACAT [CACACA_site4098],9.98
18,TGGGTATATATAAAAGGTACACAAAATGAAGATATA [XGTACX_site4994],9.67
